According to PubChem BioAssay AID1030 (National Center for Advancing Translational Sciences (NCATS), 2008):
The whole screen tested about 220,000 compounds, of which about 16,000 (7.3%) were called active. The shares of active, inactive and inconclusive entries below differ from those in the screen. Calls come from the whole dose curve; as a rule, active = well fitted inhibition curve with a large enough effect (not every such curve was filed as active); inconclusive = small, poorly fitted or top-dose-only effect, or another doubt; inactive = no such curve, though single readings can be large or run the other way. Potencies of inconclusive entries are doubtful fits and often do not repeat.

Biological target: Aldehyde dehydrogenase 1A1 (Homo sapiens) (UniProt P00352)
Assay: qHTS Assay for Inhibitors of Aldehyde Dehydrogenase 1 (ALDH1A1)
Settings: Purified ALDH1A1, NADH fluorescence, propionaldehyde substrate; series mostly up to 75.3 µM
Potency is the fitted concentration of half-maximal effect; tags give direction and shape of the fitted curve.

Sequence of UniProt P00352 (P00352 whole entry, looked up): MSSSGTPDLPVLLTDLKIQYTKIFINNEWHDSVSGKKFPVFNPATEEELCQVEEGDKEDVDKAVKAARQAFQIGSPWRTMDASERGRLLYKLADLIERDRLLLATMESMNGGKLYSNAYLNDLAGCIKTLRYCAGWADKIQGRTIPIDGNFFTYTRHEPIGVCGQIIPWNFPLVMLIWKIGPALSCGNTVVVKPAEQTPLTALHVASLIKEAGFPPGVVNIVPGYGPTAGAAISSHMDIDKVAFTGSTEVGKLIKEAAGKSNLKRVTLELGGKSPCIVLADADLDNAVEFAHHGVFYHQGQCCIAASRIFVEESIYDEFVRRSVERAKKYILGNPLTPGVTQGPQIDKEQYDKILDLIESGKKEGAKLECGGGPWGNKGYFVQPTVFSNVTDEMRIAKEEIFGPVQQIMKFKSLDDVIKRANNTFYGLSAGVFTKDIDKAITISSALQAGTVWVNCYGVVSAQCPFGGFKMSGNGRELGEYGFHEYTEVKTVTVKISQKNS

Potency, inactive:
Cc1nn2c([nH]c(=O)c3ccccc32)c1C=O, Cc1ccc(C)c(S(=O)(=O)N2CCN(CC(=O)Nc3cc(C)on3)CC2)c1, Cc1cnc(C(=O)Nc2ccccc2-c2ccc(C)o2)cn1, CC(C)Sc1nnc(NC(=O)CCc2ccccc2)s1, [O-]/C(=C(\C(=S)NCc1ccco1)[n+]1ccccc1)c1ccccc1Br, COC(=O)c1sc(N)c(C(=O)OC)c1COC(=O)CCNS(=O)(=O)c1ccc(C)cc1, CC1(C)CC(=O)/C(=C\c2cccc([N+](=O)[O-])c2)C(C)(C)N1, O=C(NCC1(N2CCOCC2)CCCCC1)c1cccc(S(=O)(=O)N2CCc3ccccc3C2)c1, CCCSc1ncccc1C(=O)O, O=C(c1ccc(COc2ccccc2Br)cc1)N1CCCCCC1, Cc1cccc(NC(=O)CSCc2nc3c(nnn3Cc3ccc(F)cc3)c(=O)[nH]2)c1C, Cc1ccc(C(=O)OCc2nnc(-c3ccccc3)o2)o1, CC(C)C(=O)Nc1ccc(C(=O)NNC(=O)CCCOc2ccc(Cl)cc2Cl)cc1

Potency, inconclusive:
CCOC(=O)C1CCN(CC(=O)Nc2c(C(=O)OC)[nH]c3cccc(C)c23)CC1 28.2 µM [inhibitor, single point], COc1ccc2c(c1)c(C(=O)CN1CCN(C(=O)c3ccco3)CC1)c(C)n2C 28.2 µM [inhibitor, single point], N#C/C(=C\c1ccc(Cl)cc1Cl)c1n[nH]c(Cn2cncn2)n1 39.8 µM [inhibitor, single point], CC1CCCC(NC(=O)C2CCN(S(=O)(=O)N3CCCCCC3)CC2)C1C (configuration not stated) 22.4 µM [inhibitor, partial curve], CNc1ncnc2ccc(-c3cccc(OC)c3)cc12 28.2 µM [inhibitor, partial curve], CCN(CC)C(=O)CSc1ncnc2c1cnn2-c1ccccc1 14.1 µM [inhibitor, partial curve], COc1cc(C=O)ccc1OCCSc1ccc(C)cc1 37.7 µM [inhibitor, single point], COc1ccc(-c2ccc(C(=O)O)c(=O)[nH]2)cc1 14.1 µM [inhibitor, partial curve], NC(=S)c1cc2cc(Br)ccc2oc1=O 3.55 µM [inhibitor, single point], COCCOc1cc(Nc2nnc(C(F)(F)F)s2)c(Cl)cc1Cl 39.8 µM [inhibitor, single point], COc1ccc(NC(=S)N(Cc2ccc(C)cc2)Cc2ccccn2)cc1 31.6 µM [inhibitor, single point], CCN(CC)C(=O)c1sc(NC(=O)c2ccc(Br)o2)c(C(=O)OC)c1C 17.8 µM [inhibitor, partial curve], COC(=O)c1ccc(C(NC(=O)OCc2ccccc2)/C(F)=C/[C@@H](C)C(=O)N(C)Cc2cccnc2)cc1 (some centres not stated) 25.1 µM [inhibitor, single point], CCOc1cc(S(=O)(=O)NCCc2cccc(C)c2)c(OCC)cc1-n1cnnn1 10 µM [inhibitor, partial curve], Cc1cc(C)c(C#N)c(SCc2ccccc2)n1 25.1 µM [inhibitor, single point], N#Cc1cc2c(nc1SCC(O)CS(=O)(=O)Cc1ccc(Cl)cc1)CCCC2 (configuration not stated) 14.1 µM [inhibitor, partial curve], O=c1[nH]nc(Cc2ccc(-c3ccc(Cl)cc3)o2)c2ccccc12 25.1 µM [inhibitor, single point], CC(=O)c1cccc(CN2CCCC(CCC(=O)NCc3ccc(C)o3)C2)c1 (configuration not stated) 28.2 µM [inhibitor, single point], O=C(NC1CCCCC1)C(c1ccccc1)N1CCC2(CC1)OCCO2 (configuration not stated) 39.8 µM [inhibitor, single point], C/C(CCN1CCCc2nc(C)c(C)cc21)=N\OC[C@@H](O)[C@@H]1O[C@@H]2OC(C)(C)O[C@@H]2[C@H]1O 3.16 µM [inhibitor, single point], O=C(CSc1nc2ccccc2s1)c1cc2ccccc2o1 31.6 µM [inhibitor, single point], CCC1(c2ccccc2)NC(=S)N(c2cccc(C)c2C)N1 (configuration not stated) 39.8 µM [inhibitor, single point], CC(NC(=O)CCSc1nc(-c2ccco2)cc(C(F)(F)F)n1)c1ccccc1 (configuration not stated) 39.8 µM [inhibitor, single point], CCOC(=O)CCC(=O)Nc1ccc(S(=O)(=O)N2CCCC2)cc1 35.5 µM [inhibitor, single point], O=S(=O)(c1ccc(F)c(F)c1F)N1CCN(C(=S)Nc2ccccc2)CC1 14.1 µM [inhibitor, partial curve], CCOc1cc2[nH]c(=S)n(CCN3CCCCC3C)c(=O)c2cc1OCC (configuration not stated) 8.91 µM [inhibitor, partial curve], O=C(Cc1cc(=O)oc2cc(O)ccc12)NCC1CCC(C(=O)O)CC1 (configuration not stated) 31.6 µM [inhibitor, partial curve], CC(=O)Nc1ccc2c(c1)C(=O)N(C1CCCCC1)C2=O 15.8 µM [inhibitor, partial curve]

Potency, active:
CCc1cc2ccc(OC)cc2nc1SCC(=O)NNC(=O)c1ccco1 6.31 µM, CC(C)N(c1ccccc1)c1ccc(NC(=O)CCl)cc1 0.398 µM, CCC(C(=O)Nc1ccsc1C(=O)OC)c1ccccc1 (configuration not stated) 11.2 µM, Cc1cccc(-n2c(C)cc(C=C3C(=O)c4ccccc4C3=O)c2C)c1 1.58 µM, S=C(NN=C(C1CC1)C1CC1)Nc1ccccc1 25.1 µM, CC1(C)Cc2c(sc3[nH]c(=S)[nH]c(=O)c23)CO1 7.94 µM
